Among all 340,000 compounds or so, about 6,900 (2%) were called active. No stated cut-off is given here; in the data, active means inhibition above about 30%; inactive means below that, where a call was filed. This is a selection; strong and weak results do not stand in their true shares. Entries without a call were filed so in the source.

Sequence of UniProt P14416 (P14416 whole entry, looked up): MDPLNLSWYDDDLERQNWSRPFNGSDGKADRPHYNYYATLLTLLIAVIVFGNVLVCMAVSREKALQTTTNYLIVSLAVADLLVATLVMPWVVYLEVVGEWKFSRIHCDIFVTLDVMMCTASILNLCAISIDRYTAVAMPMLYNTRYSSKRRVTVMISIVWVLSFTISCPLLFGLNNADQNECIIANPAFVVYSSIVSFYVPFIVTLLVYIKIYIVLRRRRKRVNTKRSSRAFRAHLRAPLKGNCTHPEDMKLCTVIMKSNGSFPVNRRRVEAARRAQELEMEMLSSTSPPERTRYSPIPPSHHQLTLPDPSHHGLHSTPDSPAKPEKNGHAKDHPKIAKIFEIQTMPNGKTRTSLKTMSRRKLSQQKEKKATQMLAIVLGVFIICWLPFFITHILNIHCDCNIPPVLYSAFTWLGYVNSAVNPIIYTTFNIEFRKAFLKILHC

The target in the assay is D(2) dopamine receptor (Homo sapiens) (UniProt P14416). The assay is described as follows: HTS Assay for Allosteric Antagonists of the Human D2 Dopamine Receptor: Primary Screen for Antagonists. Further: 0% is about no effect. As to conditions: HEK293 TREx D2 cells, calcium flux, dopamine EC80; at 10 µM; stronger effect = higher value. In short, it runs like this:
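Read-out: kinetic calcium fluorescence (1 cycle/s) in inducible HEK293 T-REx D2 cells after an EC80 dopamine addition that followed 180 s compound preincubation. Loss of the dopamine response indicates antagonism.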
(Calcium flux is commonly read through the fluorescence of an indicator in the cells.)
Take `CC(=O)N1CCC(N(Cc2ccc(C)o2)C(=O)Nc2ccc(C)cc2)CC1`: the inhibition (in general, the relative decrease from the control value, in per cent) is -6.26%.
To `CCOc1ccc(OCC)c(NS(=O)(=O)c2ccc(-c3coc(C)n3)cc2)c1` belongs -17.2%; to `Cn1c(=O)[nH]c(=O)c2c1nc(NCCc1ccccc1)n2Cc1ccc(F)cc1`, -10.7%.
For `COc1ccc(NC(=O)c2c(NC(=O)c3ccc(Br)cc3)sc3c2CCCC3)cc1`, the inhibition is -18.8%.
In the case of `Cc1ccc2c(c1)N(CCC(=O)NCc1ccccc1Cl)C(=O)CO2` it was -11.9%; in that of `Cc1ccc2onc(CC(=O)Nc3ccc(C(C)C)cc3)c2c1`, 11.8%.
To `O=c1c2oc3ccccc3c2n(Cc2ccccc2F)c(=O)n1Cc1ccccc1` belongs 4.17%; to `CCOC(=O)C1CCN(CC(O)COc2ccc(C(C)=O)cc2)CC1` (configuration not stated), active: 30.8%.
In the case of `COc1cccc(CNC(=O)c2cc3c(=O)oc4ccc(C)cc4c3s2)c1` it was 7.74%; in that of `CC(=O)C1=C(c2ccc(Cl)cc2)N(C(C)=O)n2c(nnc2C2CCCCC2)S1`, 13.5%; in that of `Cc1ccc(Cl)cc1N(C)C(=O)c1cn(C2CCCCC2)c(=O)c2c1c1ccccc1n2C`, -7.21%.
As for `O=C1CSC(c2cccnc2)N1CCc1ccccn1` (configuration not stated), the inhibition is active: 54.6%.
In the case of `Cc1ccc(N(CC(=O)Nc2cccc(Cl)c2)S(=O)(=O)c2cccs2)cc1` it was -14.8%.
In the case of `CCN(Cc1ccccc1)S(=O)(=O)c1ccc2c(c1)CC(C)N2C(=O)C1CCC1` (configuration not stated) it was 15.4%; in that of `COc1ccc(NC(=O)c2ccc(CN3CCN(c4ccccc4)CC3)cc2)cc1OC`, active: 70.8%.
To `CCC(C)NC(=O)c1cccc(NC(=O)c2nsc3ccccc23)c1` (configuration not stated) belongs -6.95%.
As for `CC1(OC(=O)C2CCCC2)C(=O)C=C2C=C(c3ccsc3)N(C3CCCC3)C=C2C1=O` (configuration not stated), the inhibition was active: 37.4%.
In the case of `COc1ccccc1NC(=O)CSC1=Nc2ccccc2C2=NC(CCC(=O)NCc3cccs3)C(=O)N12` (configuration not stated), the inhibition came out at 8.94%.
To `CCCCN(CC)C(=O)Cn1ncc2c3ccccc3n(CCC)c2c1=O` belongs 0.962%.
To `CC(=O)c1c(C)[nH]c(C(=O)OCC(=O)Nc2nnc(-c3ccccc3)o2)c1C` belongs active: 34.9%.
In the case of `COc1ccc(-n2cc(C(=O)NCc3ccccc3Cl)c3ccccc3c2=O)cc1` it was -10.9%.
`Cn1c(=O)[nH]c2cc(-c3noc(-c4cccc(Cl)c4)n3)ccc21`: the inhibition was 7.61%.
In the case of `CCCNC(=O)Cn1nc(-c2ccc(F)cc2)c2cnc3ccc(F)cc3c21` it was 2.67%.
Consider `CCC(C)[C@H](NC(=O)NC1CCN(Cc2ccccc2)CC1)C(=O)OC` (some centres not stated), for which the inhibition is active: 56.6%.
To `CCOc1ccc(Cn2c(CNS(=O)(=O)c3cccc(Cl)c3)nc3cccnc32)cc1` belongs 5.9%; to `CCc1ccc(NC(=O)CSc2nc3c(sc4ccccc43)c(=O)n2CCCOC(C)C)cc1`, -5.68%; to `COc1ccccc1C(=O)N1CCN(Cc2cc(=O)oc3cc(C)ccc23)CC1`, -16.6%.
Regarding `CCOC(=O)c1cc2sccc2n1Cc1ccc(C#N)cc1`, the inhibition is active: 31.1%.
To `Cc1ccc(CNC(=O)c2ccc(CSCc3ccccc3C)o2)cc1` belongs 6.06%; to `COc1ccc(-c2nc3ccc(NS(=O)(=O)c4ccc(Cl)cc4)cc3o2)cc1`, -4.25%; to `COc1ccc(-c2nc3scc(CCNS(=O)(=O)c4ccc(NC(C)=O)cc4)n3n2)cc1`, 10.7%.
To `COc1cc2nc(SCC(=O)Nc3ccccc3F)n3nc(-c4ccccc4)nc3c2cc1OC` belongs 5.73%; to `COc1ccc(C)cc1N(C)C(=O)c1c2c(nc3ccccc13)C(=O)N(C1CCCCC1)C2`, -3.47%.
In the case of `Cc1cccc(OCCn2c(SCC(=O)O)nc3ccccc32)c1` it was -2.82%; in that of `COc1ccc(CNS(=O)(=O)c2ccc(-c3cnc(C4CC4)o3)cc2)cc1`, -5.55%.
For `COc1ccc(Nc2ncc(C(=O)N3CCN(c4ccc(F)cc4)CC3)c3ccccc23)cc1`, the inhibition stood at 6.17%.
In the case of `c1ccc(CN2CCN(c3ncccn3)CC2)cc1` it was active: 83.6%; in that of `C=C(C)Cn1c(=O)c2c(nc3n2CCN3c2ccc(F)cc2)n(C)c1=O`, 3.46%; in that of `CCOc1ccc(NCc2cccn2-c2nnc(N3CCC(C(=O)NCCOC)CC3)s2)cc1`, -4.45%.
In the case of `Cc1cc(=O)n2nc(N3CCC(C(=O)NCc4ccc(F)cc4)CC3)sc2n1` it was -5.09%; in that of `COc1ccccc1/C=C/c1nc(C#N)c(NCCc2ccccc2)o1`, -19.5%.
To `CCOc1ccc(-c2nc(Cn3ccn4nc(-c5ccc(OCC)c(Cl)c5)cc4c3=O)c(C)o2)cc1` belongs -1.47%; to `Cc1ccccc1Nc1cc(C(=O)NCc2cccs2)c2ccccc2n1`, -9.68%.
`CCCS(=O)(=O)N1CCCC(C(=O)NCCOC)C1` (configuration not stated): the inhibition was -8.22%.
In the case of `CCCCN(CCCC)C1=C(C(=O)c2ccccc2)N(C)S(=O)(=O)c2ccccc21` it was 17.7%; in that of `Cc1ccc2c(=O)cc(C(=O)Nc3sc4c(c3C(=O)NCc3ccccc3)CCCC4)oc2c1C`, -6.49%; in that of `O=C(CN1C(=O)CCc2cc(S(=O)(=O)N3CCOCC3)ccc21)Nc1cccc(C(F)(F)F)c1`, 8.49%.
To `COc1ccc(NC(=O)CNC(=O)Cn2c(C)cc3ccccc3c2=O)cc1OC` belongs -2.4%; to `O=C(Nc1sc2c(c1C(=O)N1CCCCC1)CCCC2)c1ccccc1Cl`, 9.03%; to `Cc1noc(Cn2c(=O)c3cc4c(cc3n(CC(=O)Nc3ccccc3Br)c2=O)OCO4)n1`, 10.8%.
In the case of `CCCCN1C(C(=O)c2ccccc2)=C(OC(C)=O)c2ccccc2S1(=O)=O` it was 2.12%.
For `CN(C)c1ccc(CNC(=O)CCS(=O)(=O)c2ccc3c(c2)oc(=O)n3C)cc1`, the inhibition amounted to 1.99%.
In the case of `COc1ccccc1OCC(=O)NCc1nc(-c2ccc(Cl)cc2)no1` it was 1.65%.
To `CCOc1ccc(C(=O)Nc2ccc(S(=O)(=O)Nc3nc(C)cc(C)n3)cc2)cc1OC` belongs -2.02%; to `CC1=C(c2ccc(C)c(C)c2)S(=O)(=O)N(Cc2ccc(C(=O)NC(C)c3ccccc3)cc2)C1=O` (configuration not stated), 4.59%; to `O=C(COc1ccccc1)Nc1ccccc1OCc1cc(=O)n2ccccc2n1`, 18.5%.
In the case of `O=C(Nc1c(C(=O)O)oc2ccccc12)c1ccc(C(F)(F)F)cc1` it was -17.9%.
For the compound `O=C(CSc1cn(CC(=O)N2CCOCC2)c2ccccc12)Nc1ccccc1`, the inhibition is -10.1%.
With `CCOc1ccc(CN2CCC(n3nccc3NC(=O)c3ccccc3OC)CC2)cc1`, the inhibition was active: 38.2%.
To `O=C(COCc1cc(-c2ccc3c(c2)OCO3)on1)NCc1ccccc1Cl` belongs -9.68%.
With `O=C(Nc1ccc(F)cc1F)c1ccc2c(O)c(S(=O)(=O)c3ccc(Cl)cc3)c(=O)[nH]c2c1`, the inhibition turned out to be 11.8%.
To `COc1cc(NC(=O)CSc2nc3nc(C)c(Cc4ccc(C)cc4)c(C)n3n2)cc(OC)c1OC` belongs -13.3%.

The record behind these values is PubChem BioAssay AID485344 (National Center for Advancing Translational Sciences (NCATS), 2010).
